{
  "source": "patent US20140235576A1",
  "about": "“PYRROLIDINE-2-CARBOXYLIC ACID DERIVATIVES AS IGLUR ANTAGONISTS” (Kobenhavns Universitet, priority 2013, published 2014)",
  "origin": "cited, not measured here",
  "settings_in_all_cases": "cloned homomeric subtype; values taken from reference 49; cited from earlier work",
  "key": {"GluK3": {"biological_target": "T1, GluK3 (Rattus norvegicus, UniProt P42264)", "T1 construct": "expressed in transfected cells", "T1 sequence (P42264 32-919)": "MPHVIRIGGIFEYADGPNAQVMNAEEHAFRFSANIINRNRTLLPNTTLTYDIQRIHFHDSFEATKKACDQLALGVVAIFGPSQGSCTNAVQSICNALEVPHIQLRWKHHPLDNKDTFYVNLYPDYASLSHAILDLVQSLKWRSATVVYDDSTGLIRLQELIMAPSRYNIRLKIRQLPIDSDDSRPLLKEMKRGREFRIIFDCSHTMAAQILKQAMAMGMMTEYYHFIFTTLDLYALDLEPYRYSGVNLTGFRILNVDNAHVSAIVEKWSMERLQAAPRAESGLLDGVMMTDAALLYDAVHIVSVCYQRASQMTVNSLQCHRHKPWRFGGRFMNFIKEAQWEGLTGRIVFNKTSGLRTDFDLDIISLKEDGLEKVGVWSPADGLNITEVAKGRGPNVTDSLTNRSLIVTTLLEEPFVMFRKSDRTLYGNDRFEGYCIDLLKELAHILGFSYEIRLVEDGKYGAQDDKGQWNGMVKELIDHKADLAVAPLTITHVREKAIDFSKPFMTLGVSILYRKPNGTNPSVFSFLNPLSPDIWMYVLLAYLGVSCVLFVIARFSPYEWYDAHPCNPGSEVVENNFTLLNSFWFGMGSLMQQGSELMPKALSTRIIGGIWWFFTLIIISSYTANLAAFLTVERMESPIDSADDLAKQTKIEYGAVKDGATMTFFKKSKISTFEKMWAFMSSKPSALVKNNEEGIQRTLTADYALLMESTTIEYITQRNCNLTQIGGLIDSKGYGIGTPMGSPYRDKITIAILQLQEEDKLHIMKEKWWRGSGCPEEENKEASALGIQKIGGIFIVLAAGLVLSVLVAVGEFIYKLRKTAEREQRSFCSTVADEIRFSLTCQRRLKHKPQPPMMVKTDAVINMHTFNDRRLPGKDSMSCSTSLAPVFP"}, "GluK2": {"biological_target": "GluK2 (UniProt P42260)"}, "GluK1": {"biological_target": "GluK1 (UniProt P22756)"}},
  "data": [
    {"smiles": "O=C(O)c1cccc([C@H]2CCN[C@@H]2C(=O)O)c1", "note": "[Analog 1]", "values": [
      {"measurement": "Ki", "setting": "GluK3", "value": 8.1, "unit": "µM"},
      {"measurement": "Ki", "setting": "GluK2", "value": "> 100", "unit": "µM"},
      {"measurement": "Ki", "setting": "GluK1", "value": 4.3, "unit": "µM"}
    ]}
  ]
}
